# Reference: article PMC4336329 (PLoS ONE, 2015)
# Hit rate of the full screen: of about 310,000 compounds, about 2,200 (0.71%) showed an effect of 50% or more. Effects have a minus sign here. The list shows a part of the results.
# Biological target: human ether-à-go-go-related gene (hERG) potassium channel (human, UniProt Q12809)
# Experiment: primary screen, population patch clamp on CHO cells stably expressing hERG
# human ether-à-go-go-related gene (hERG) potassium channel, sequence (Q12809 whole entry, looked up): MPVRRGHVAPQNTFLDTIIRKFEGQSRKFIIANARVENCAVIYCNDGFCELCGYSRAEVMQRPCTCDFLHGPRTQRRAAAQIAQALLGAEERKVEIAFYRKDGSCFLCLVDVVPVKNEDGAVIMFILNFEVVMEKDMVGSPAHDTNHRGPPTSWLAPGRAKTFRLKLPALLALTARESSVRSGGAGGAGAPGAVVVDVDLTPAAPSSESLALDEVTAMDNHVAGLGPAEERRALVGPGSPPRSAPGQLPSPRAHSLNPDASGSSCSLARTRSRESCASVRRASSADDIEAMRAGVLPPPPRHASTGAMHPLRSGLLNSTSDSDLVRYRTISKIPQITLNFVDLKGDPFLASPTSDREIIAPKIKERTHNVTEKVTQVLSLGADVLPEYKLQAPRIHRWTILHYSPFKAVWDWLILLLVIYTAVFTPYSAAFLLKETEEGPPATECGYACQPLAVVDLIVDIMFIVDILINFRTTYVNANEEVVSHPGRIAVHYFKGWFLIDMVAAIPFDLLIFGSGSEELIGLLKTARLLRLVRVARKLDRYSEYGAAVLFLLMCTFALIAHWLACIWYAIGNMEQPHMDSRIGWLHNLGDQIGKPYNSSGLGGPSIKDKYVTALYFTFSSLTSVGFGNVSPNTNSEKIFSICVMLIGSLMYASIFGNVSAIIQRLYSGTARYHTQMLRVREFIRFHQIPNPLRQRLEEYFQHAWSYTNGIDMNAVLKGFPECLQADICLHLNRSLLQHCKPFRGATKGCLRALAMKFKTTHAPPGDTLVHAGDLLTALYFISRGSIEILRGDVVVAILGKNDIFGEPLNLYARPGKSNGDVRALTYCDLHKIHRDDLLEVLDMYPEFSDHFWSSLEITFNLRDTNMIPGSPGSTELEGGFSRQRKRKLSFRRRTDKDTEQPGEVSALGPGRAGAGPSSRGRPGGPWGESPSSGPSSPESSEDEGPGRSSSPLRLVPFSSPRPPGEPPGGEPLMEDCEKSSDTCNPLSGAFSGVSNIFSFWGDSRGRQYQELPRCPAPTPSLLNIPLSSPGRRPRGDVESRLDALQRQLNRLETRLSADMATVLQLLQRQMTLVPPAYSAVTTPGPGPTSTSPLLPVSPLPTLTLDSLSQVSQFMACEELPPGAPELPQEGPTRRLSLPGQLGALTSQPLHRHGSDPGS
row,SMILES,"hERG current change (%, negative = inhibition) at 1uM"
1,COc1cc(S(=O)(=O)Nc2c(C)cc(C)cc2C)ccc1Cl,13.4%
2,Cc1cc(C)cc(N(CC(=O)NCc2ccccc2)C(=O)CCC(=O)Nc2ccccn2)c1,23.2%
3,O=c1cc(-c2ccc([N+](=O)[O-])cc2)c2cc3c(cc2[nH]1)OCCO3,9.87%
4,Cc1ccc(N2CCN(/N=C/c3ccccc3[N+](=O)[O-])CC2)cc1,4.87%
5,O=C1OCCC1Sc1nnc(-c2ccc(F)cc2)n1Cc1ccccc1 (stereo not shown),3.07%
6,Cl.OC(COCc1ccc2c(c1)OCO2)CN1CCN(Cc2ccccc2)CC1 (stereo not shown),-8.65%
7,CC1Cc2ccccc2N1C1=CC(=O)CC(C)(C)C1 (stereo not shown),7.36%
8,CN(C)C(=O)c1cn(-c2ccccc2)nc1-c1cccs1,4.9%
9,COc1ccc(Nc2nc(C(=O)NCCCN3CCOCC3)cs2)cc1,6.01%
10,O=C(COC(=O)c1c(F)cccc1F)Nc1ccc2[nH]c(=O)[nH]c2c1,12.3%
11,Cc1sc(NC(=O)c2ccco2)c(C(=O)c2ccc(Cl)cc2)c1C,21.6%
12,CC(C)(C)c1cnnn1-c1ccc(/C=N/Nc2ccc([N+](=O)[O-])cc2)cc1,12%
13,CCOC(=O)N1CCN(Cc2cc(=O)oc3cc4c(cc23)CCC4)CC1,-3.49%
14,CCOC(=O)N1CCN(C2OC(=O)c3ccccc32)CC1 (stereo not shown),17.7%
15,Cc1cc(-c2ccn[nH]2)c(C)s1,11.4%
16,c1ccc2nc(N3CCOCC3)cnc2c1,-0.824%
17,O=C(CNC(=O)c1ccc(F)cc1)c1ccccc1,6.52%
18,COC(=O)c1cccc(C(=O)Nc2ccc(F)cc2)n1,7.33%
19,Nc1cc(=O)[nH]c(SCC(=O)Nc2nnc(-c3ccccc3)s2)n1,19.8%
20,CC(=O)Nc1ccc(S(=O)(=O)N2CCN(C(=O)c3ncoc3-c3ccccc3C)CC2)cc1,18.8%
21,N#CCn1c(Cc2ccccc2)nc2ccccc2c1=O,12.2%
22,O=S(=O)(Nc1ccc2c(c1)nc1n2CCN(Cc2ccccc2)C1)c1ccccc1,0.0679%
23,CCOc1ccc(NC(=O)CCNS(=O)(=O)c2cccs2)cc1,8.21%

row,SMILES,"hERG current change (%, negative = inhibition) at 1uM"
1,COc1cc(Br)c(C(C)NC(=O)c2ccc(C)cc2)cc1OC (stereo not shown),6.82%
2,c1coc(-c2nc3ccccc3nc2-c2ccco2)c1,6.35%
3,Cc1ccc(S(=O)(=O)N2CCN(C(=O)c3ccco3)CC2)c(C)c1,2.97%
4,C1CCN(c2c3c(nc4nnnn24)CCCC3)CC1,11.1%
5,O=C(Cn1c(=O)oc2ccccc21)N1CCN(S(=O)(=O)c2ccccc2)CC1,-4.15%
6,O=C(NNC(=O)C1CC=CCC1)c1ccccc1Cl (stereo not shown),14.4%
7,COc1cccc(S(=O)(=O)Nc2cccc(C(=O)N3CCOCC3)c2)c1,9.01%
8,CCC(Oc1ccccc1)C(=O)Nc1nnc(C)s1 (stereo not shown),-15.7%
9,CCCCn1c(N)c(N(CC)C(=O)c2ccncc2)c(=O)[nH]c1=O,9.26%
10,CCc1ncc(C(O)c2cccc3ccccc23)n1C (stereo not shown),9.12%
11,COc1cc(/C=C(\C#N)c2ccccn2)ccc1OCc1ccc(Cl)cc1,1.98%
12,O=C(Nc1ccccc1F)c1ccc(CN2CCN(c3ccccc3)CC2)cc1,-31%
13,O=S(=O)(NCc1csc(-c2cccnc2)n1)c1ccc(Br)cc1,38.3%
14,Cc1c(C(=O)O)sc2nc(C)n(C)c(=O)c12,2.9%
15,COc1cccc2cc(C(C)N(CCCN3CCOCC3)C(=S)Nc3cccc(C)c3C)oc12 (stereo not shown),7.83%
16,COc1ccc(CN(C)C(=O)c2ccncc2)c(OC)c1,-1.92%
17,CCN(C(=O)CSc1nnc2nc(C)cc(C)n12)c1ccccc1,6.97%
18,COc1ccc(NC(C)=O)cc1CNC(=O)CN1CCOCC1,13.7%
19,CN(CC(=O)Nc1ccccc1C(F)(F)F)C(=O)COc1ncnc2ccccc12,6.86%
20,Cc1ccc(S(=O)(=O)N(CC(=O)NC2CCCCCC2)c2ccccc2F)cc1,2.82%
21,COc1cc(/C=C2\SC(=S)N(NC(=O)c3cccc(O)c3)C2=O)ccc1O,12.9%
22,COc1ccc(NC(=S)Nc2cccc(C(F)(F)F)c2)c(C)c1,0.354%
23,COC(=O)c1cc2sc(Cl)cc2n1CC(=O)Nc1ccc(OC)c(OC)c1OC,-58.5%

row,SMILES,"hERG current change (%, negative = inhibition) at 1uM"
1,O=C(CCNC(=O)c1ccccc1)Nc1cccnc1,16.3%
2,O=C(O)/C=C/c1ccc(S(=O)(=O)N2CCN(CCN3C(=O)C4C5C=CC(C5)C4C3=O)CC2)cc1 (stereo not shown),13.9%
3,CCN(CC)CCN(C(=O)CCOc1ccccc1)c1nc2ccc(F)cc2s1.Cl,2.28%
4,CN(C)c1ccc(-c2nnc(-c3cccs3)o2)cc1,17.6%
5,CCCCn1c(N)c(N(CC)C(=O)CSc2nnnn2-c2cc(C)ccc2C)c(=O)[nH]c1=O,1.06%
6,O=C(OCC(=O)C12CC3CC(CC(C3)C1)C2)c1ccc(O)cc1O,10.7%
7,CC(C)(CNC(=O)c1sc2cc(Cl)ccc2c1Cl)N1CCOCC1,7.23%
8,Cc1ccccc1NC(=S)NC(=O)CCc1ccccc1,-0.0976%
9,CCC(Oc1ccccc1)C(=O)NCCCN1CCOCC1 (stereo not shown),0.722%
10,COc1ccccc1/C=C/C(=O)c1ccc(Cl)cc1,1.15%
11,COc1ccc(-c2c[n+]3c(n2-c2ccccc2)SCC3)cc1.[Br-],-6.21%
12,CC(OC(=O)CCN=C1NS(=O)(=O)c2ccccc21)C(=O)Nc1ccc(F)cc1Cl (stereo not shown),7.57%
13,O=C(CN1CCN(C(=O)c2ccco2)CC1)Nc1cc(C(F)(F)F)ccc1Cl,-26.1%
14,CC1=C(C(=O)Nc2ccccn2)C(c2ccc(Cl)cc2)NC(=S)N1 (stereo not shown),10.5%
15,CC(=O)N1CCCc2cc(S(=O)(=O)N3CCCC(C(=O)NCc4ccc(C)cc4)C3)ccc21 (stereo not shown),10%
16,C[C@H](NC(=O)c1ccccc1Cl)C(=O)NCCc1ccc(S(N)(=O)=O)cc1,3.8%
17,O=C(c1ccco1)N1CCN(S(=O)(=O)c2cc(Cl)ccc2Cl)CC1,5.88%
18,CC(C)n1nnnc1SCC(=O)N1CCOCC1,19%
19,Nc1nccnc1C(=O)OCc1nc2sc3c(c2c(=O)[nH]1)CCCC3,11.3%
20,CCc1nnc(NC(=O)COC(=O)CN2C(=O)c3ccccc3C2=O)s1,9.74%
21,Cc1ccc(NC(=O)CN(C)C(=O)c2nn(C)c(=O)c3ccccc23)cc1,-13.2%
22,CC(=O)Nc1cccc(NC(=O)CCN2C(=O)c3ccccc3S2(=O)=O)c1,6.03%
23,COc1ccc(NC(=S)N2CCC(NC(=O)c3ccc(OC)cc3)CC2)cc1,11.3%

row,SMILES,"hERG current change (%, negative = inhibition) at 1uM"
1,Cn1cccc1-c1nc2ccccc2n1Cc1ccccc1,1.48%
2,COc1cc(SC)ccc1C(=O)NCC1CCCO1 (stereo not shown),7.77%
3,CCOC(=O)c1c(NC(=O)CSc2ncnc3[nH]ncc23)sc2c1CCC(C)C2 (stereo not shown),4.51%
4,CCOC(=O)C(C)Sc1ncc(OC)c(=O)[nH]1 (stereo not shown),12.3%
5,O=c1nc(-c2ccccc2)c2cc(Cl)ccc2[nH]1,-4.6%
6,Cc1ccccc1Nc1ncc(C#N)c(N)n1,13.1%
7,Cc1ccc(C(=O)OC(C)C(=O)NC(C)CCc2ccccc2)o1 (stereo not shown),8.71%
8,CCOC(=O)C1CCCN(S(=O)(=O)c2c(C)c(C)cc(C)c2C)C1 (stereo not shown),1.87%
9,CCc1ccc(N2CC(C(=O)NC3CCCCC3C)CC2=O)cc1 (stereo not shown),12.1%
10,COC(=O)CCCC1=CC2=CC(=O)C(C)(OC(=O)c3cccs3)C(=O)C2=CN1CCc1c[nH]c2ccccc12 (stereo not shown),19.5%
11,CC(=O)Nc1ccc(NC(=O)CSc2nnnn2-c2ccccc2F)cc1,12.7%
12,Cc1cccc(NC(=O)CCn2nc(C)cc2C)c1,8.58%
13,CCOC(=O)c1cnn(-c2nc3c(C)cccc3s2)c1C,17%
14,Cc1ccc(NCC(=O)NNC2=NCCC2)c(C)c1,7.03%
15,CCOC(=O)N1CCN(C(=O)c2cnn3c(C(F)(F)F)cc(-c4cccs4)nc23)CC1,4.07%
16,CCc1ccc(CC(=S)N2CCOCC2)cc1,7.97%
17,N#Cc1c(N)nc2c(c1-c1ccccc1)CCC2,15.6%
18,COC(=O)c1c(-c2cccc(C)c2)csc1NC(=O)C1CCCO1 (stereo not shown),9.66%
19,C/C(=N/NC(=O)CN1CCN(Cc2ccccc2Cl)CC1)c1cccs1,-5.01%
20,CCc1ccc(N2CC(C(=O)OCC(=O)c3c(N)n(CC(C)C)c(=O)n(C)c3=O)CC2=O)cc1 (stereo not shown),6.45%
21,COc1cccc(C(CC(=O)O)NS(=O)(=O)c2ccc3c(c2)N(C(C)=O)CC(C)O3)c1 (stereo not shown),16.3%
22,COc1ccc(C(=O)c2ccc(N3CCOCC3)c([N+](=O)[O-])c2)cc1,5.42%
